Reference: PubChem BioAssay AID720542 (National Center for Advancing Translational Sciences (NCATS), 2013)
Out of some 360,000 compounds screened, about 740 (0.21%) were called active. The shares of active, inactive and inconclusive entries below differ from those in the screen. Calls follow the shape of the dose curve; as a rule, active = well fitted inhibition curve with a large enough effect; inconclusive = small, poorly fitted or top-dose-only effect; inactive = no such curve, though single readings can be large or run the other way. No potency is given beside an inconclusive call; the fits are too rough.

Test system: Plasmodium falciparum AMA1 (3D7) - RON2 peptide interaction
Assay: qHTS for Inhibitors of AMA1-RON; Towards Development of Antimalarial Drug Lead: Primary Screen; also: nearly all actives have a fitted effect of over 45% in size;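 as to activity change, negative = inhibition: 0% = vehicle wells and -100% = peptide control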
Settings: AlphaScreen AMA1-biotinylated RON2 peptide binding; activity change, negative = inhibition: at 58.2 µM (top of the series) unless noted
How it was run: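 AMA1 (3D7) with his tag at 25 nM final met compounds first, then biotinylated RON2 peptide at 25 nM; detection used donor plus acceptor beads, 10 µg/mL apiece, read by AlphaScreen after 30 min at room temperature.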
Potency is read from the fitted curve at half-maximal effect; tags tell the direction and shape of the fitted curve.

| SMILES | Potency | activity change, negative = inhibition |
| --- | --- | --- |
| O=C(O)c1cc(C(=O)O)cc(-c2ccc(/C=c3/sc4nc5ccccc5n4c3=O)o2)c1 | inconclusive [inhibitor, single point] | – |
| COc1cccc(C(NC(C)=O)c2nc(-c3ccc(N(C)C)cc3)cs2)c1 (stereo not given) | inconclusive [inhibitor, single point] | – |
| CC(C)(O)c1ccc2c(c1)CCC1C(C)(C(=O)O)CCCC21C (stereo not given) | inconclusive [inhibitor, single point] | – |
| CCOc1cc(N2CCOCC2)c(OCC)cc1NC(=O)C(C)Oc1ccccc1 (stereo not given) | inconclusive [inhibitor, single point] | – |
| Cc1ccc(CN2CCN(/N=C/C(Br)=C\c3ccccc3)CC2)cc1 | inconclusive [inhibitor, partial curve] | – |
| O=[N+]([O-])c1ccc(C=NNc2ccccc2)cc1 | inconclusive [inhibitor, partial curve] | – |
| CC(OC(=O)CSc1ccc([N+](=O)[O-])cc1)C(=O)NCc1ccccc1 (stereo not given) | inconclusive [inhibitor, partial curve, poor fit] | – |
| C=CC[n+]1c(-c2ccc(Cl)cc2Cl)csc1Nc1ccc(NC(C)=O)cc1 | inconclusive [inhibitor, partial curve] | – |
| O=C(Nc1ccc(C(=O)N2CCOCC2)cc1)c1cccs1 | – | inactive: -15.7% |
| c1ccc(-c2nc(NCc3cccnc3)c3oc4ccccc4c3n2)cc1 | inconclusive [inhibitor, single point] | – |
| Cc1ccc(N2C(=O)CCC2=O)c(C)c1 | inconclusive [inhibitor, partial curve] | – |
| COC(=O)c1cc2ccccc2c([N+](=O)[O-])c1O | – | inactive: -1.75% |
| [N-]=[N+]=CC(=O)c1ccnc(C(=O)C=[N+]=[N-])c1 | – | inactive: -3.95% |
| C[C@H](c1ccccc1)N1C[C@@H](COCc2ccccc2)Oc2cc(N3CC[C@@H](N(C)C)C3)ccc2S1(=O)=O | inconclusive [inhibitor, partial curve] | – |
| COc1ccc(Br)cc1/C=C/C(=O)Nc1ccc2ccccc2c1 | – | inactive: 9.18% |
| COc1ccc(C(=O)Oc2cc(C(=S)N3CCOCC3)ccc2OC)cc1 | inconclusive [inhibitor, partial curve] | – |
| Cc1ccc2c(c1)N(CCC(=O)N1CCC3(CC1)OCCO3)C(=O)C(C)O2 (stereo not given) | inconclusive [inhibitor, single point] | – |
| Oc1ccc(-c2ccccc2)cc1CN1CCCCCC1 | – | inactive: 3.48% |
| C[C@@H]1C[C@@H]([C@H](O)CC2CC(=O)NC(=O)C2)C(=O)[C@@H](C)C1 | – | inactive: 6.57% |
| C#CCSC1=C(C#N)C(c2cccs2)C(C(=O)OCC)=C(C)N1 (stereo not given) | – | inactive: 16.3% |
| CC(C)n1nnnc1SCC(=O)NNC(=O)C1CCCCC1 | – | inactive: 48.5% |
| CC(=O)c1cnc2c(-c3ccc(Cl)cc3)cnn2c1C | – | inactive: -5.65% |
| COc1ccc(CCN(C)Cc2ccc(OCc3ccccc3)c(OC)c2)cc1OC | inconclusive [inhibitor, single point] | – |
| CCC(OCC(O)CN1CCN(CCN2C(=O)c3cccc4cccc(c34)C2=O)CC1)c1ccccc1 (stereo not given) | inconclusive [inhibitor, single point] | – |

| SMILES | Potency | activity change, negative = inhibition |
| --- | --- | --- |
| O=C(NCCOc1ccccc1)c1cccc(S(=O)(=O)N2CCN(Cc3ccccc3)CC2)c1 | – | inactive: -12.5% |
| O=C(O)C1CCCCC1C(=O)Nc1ccc(F)c(F)c1 (stereo not given) | – | inactive: 0.932% |
| CN(C)c1ccc(N/C(=N\S(=O)(=O)c2cccs2)c2ccccc2)cc1 | inconclusive [inhibitor, single point] | – |
| CCN1c2ccccc2N(C)C1(C)c1ccccc1 (stereo not given) | active: 31.6 µM | – |
| CCOC(=O)C1=C(C)NC2=C(C(=O)c3ccccc32)C1c1ccc([N+](=O)[O-])o1 (stereo not given) | inconclusive [inhibitor, partial curve, poor fit] | – |
| Cc1ccccc1C(=O)c1cccn1CC(=O)NCCN1CCN(c2cccc(C)c2C)CC1 | inconclusive [inhibitor, partial curve] | – |
| C#CCOCCOCCOCCNc1nc(N2CCN(C(=O)CCCCCCCCCCNC(=O)Cn3cc(C[C@@H](C)O)nn3)CC2)nc(N2CCN(C(=O)CCCCCCCCCCNC(=O)[C@H](CCCN=C(N)N)n3cc(C[C@@H](C)CC)nn3)CC2)n1 | inconclusive [inhibitor, partial curve] | – |
| O=C(CN(Cc1ccccc1)S(=O)(=O)c1ccc(S(=O)(=O)N2CCOCC2)cc1)Nc1ccccc1 | – | inactive: -14.2% |
| COc1ccc(S(=O)(=O)N(C)C[C@H]2Oc3ccc(NC(=O)NC4CCCCC4)cc3C(=O)N([C@H](C)CO)C[C@@H]2C)cc1 | inconclusive [inhibitor, single point] | – |
| CCN1CCN(CCCNC(=O)c2ccc3c(c2)NC(=O)c2ccccc2S3)CC1 | – | inactive: 8.3% |
| CC(C)CCOP(=O)(c1ccc(N(C)C)cc1)C(Nc1ccccc1)c1ccc(N(C)C)cc1 (stereo not given) | inconclusive [inhibitor, partial curve] | – |
| O=C(C1CCCO1)N1CCN(c2ccccn2)CC1 (stereo not given) | – | inactive: 3.42% |
| C=CCOC(=O)C1=C[C@H](c2ccc(Br)cc2)C[C@H](OCc2ccc(CO)cc2)O1 | – | inactive: 9.43% |
| CN(C)c1ccc(NC(=O)Nc2ccc3c(c2)c(=O)n(C)n3Cc2ccc(Cl)cc2)cc1 | inconclusive [inhibitor, partial curve] | – |
| CN1CCN(c2cc(N3CCN(C(=O)c4ccco4)CC3)c3c4c(onc24)-c2ccccc2C3=O)CC1 | active: 17.8 µM | – |
| CN(C)c1ccc(CNC(=O)CCc2ccc(S(=O)(=O)N3CCCCCC3)cc2)cc1 | inconclusive [inhibitor, partial curve] | – |
| O=C(O)CN1C(=O)/C(=C\c2cc(Br)ccc2OCc2ccc(Cl)cc2Cl)SC1=S | inconclusive [inhibitor, single point] | – |
| COc1ccc(N2CCN(C(=O)c3ccccc3N(C)S(=O)(=O)c3ccc(C)cc3)CC2)cc1 | inconclusive [inhibitor, single point] | – |
| Cc1ccc2nc(Cc3ccc(N)cc3)[nH]c2c1 | inconclusive [inhibitor, single point] | – |
| CCOc1ccc(NS(=O)(=O)c2cc(Cl)ccc2OC)cc1 | – | inactive: -1.3% |
| O=[N+]([O-])c1cccc(C2NCC(c3ccccc3Cl)c3c2[nH]c2ccccc32)c1 (stereo not given) | inconclusive [inhibitor, single point] | – |
| COc1cc(/C=C(\C#N)C(=O)c2ccc(O)c(O)c2)cc(I)c1O | inconclusive [inhibitor, full curve] | – |
| Nc1nc(CN2CCN(c3ccccc3F)CC2)nc(N2CCCc3ccccc32)n1 | inconclusive [inhibitor, partial curve] | – |
| COc1ccc(NC(=O)CN(C)C(=O)C2(c3ccccc3)CCCC2)cc1 | – | inactive: -2.65% |

| SMILES | Potency | activity change, negative = inhibition |
| --- | --- | --- |
| O=C(O)CCNc1cc(N2CCN(C(=O)c3ccco3)CC2)c2noc3c2c1C(=O)c1ccccc1-3 | active: 31.6 µM | – |
| Cc1cc(C(C)(C)C)cc(C)c1S(=O)(=O)N1CC(=O)Nc2ccccc21 | – | inconclusive: -34.6% [inhibitor] |
| CCOc1cc(N2CCOCC2)c(OCC)cc1NC(=O)C(C)C | – | inactive: 0% |
| O=[N+]([O-])c1cc(S(=O)(=O)C(F)(F)F)ccc1Sc1nc2ccccc2[nH]1 | inconclusive [inhibitor, partial curve] | – |
| N#C/C(=C\c1ccc[nH]1)C(=O)NCC1CCCO1 (stereo not given) | inconclusive [inhibitor, partial curve] | – |
| COCCn1c(C)cc(C(=O)CN2CCCCC2)c1C | – | inactive: 12.9% |
| CSc1ncccc1C(=O)Nc1cc(Cl)ccc1N1CCOCC1 | – | inactive: -8.22% [at 11.6 µM] |
| Cc1ccc(C(=O)CCC(=O)OC(C)C(=O)NC2CCCCC2C)cc1 (stereo not given) | – | inactive: 11.1% |
| COc1ccc(NC(=O)CN(C)CCOc2ccc(Cl)cc2)cc1OC | inconclusive [inhibitor, partial curve] | – |
| Cc1ccc(S(=O)(=O)N2CCN(c3c([N+](=O)[O-])cc(C(F)(F)F)cc3[N+](=O)[O-])CC2)cc1 | inconclusive [inhibitor, full curve] | – |
| O=C(NNC(=O)c1ccccc1Br)c1ccccc1Cl | – | inactive: 26.4% |
| CCN(CCNC(=O)C1CCCN(Cc2nc(-c3ccc(OC)cc3)oc2C)C1)c1ccccc1 (stereo not given) | inconclusive [inhibitor, partial curve] | – |
| CCOC(=O)Cc1csc(NC(=O)c2cc(OC)cc(OC)c2)n1 | inconclusive [inhibitor, partial curve] | – |
| N#Cc1ccc(C=NN2CCCCCC2)cc1 | active: 28.2 µM | – |
| O=C(CNCCc1ccccc1)Nc1ccc(C(=O)N2CCCCC2)cc1 | – | inactive: -14.9% |
| CCCCN1C(=O)/C(=C/C=C/c2ccco2)C(=O)NC1=S | inconclusive [inhibitor, full curve] | – |
| COc1ccc(N2CCC(CNC(=O)Nc3ccc(Cl)cc3)C2)cc1 (stereo not given) | inconclusive [inhibitor, single point] | – |
| CN(C)c1ccc(C(c2ccc(N(C)C)cc2)C(O)c2ccccc2)cc1 (stereo not given) | inconclusive [inhibitor, partial curve] | – |
| O=C(c1ccc2c(Cl)c3c(nc2c1)CCCC3)N1CCC(N2CCCCC2)CC1 | – | inactive: 4.02% |
| O=C(c1cccc([N+](=O)[O-])c1)N1CCCC(C(=O)N2CCCCCC2)C1 (stereo not given) | – | inactive: -14.3% |
| COc1cc(-c2cnc3c(NC=O)cc(-c4ccccc4)cn23)cc(OC)c1OC | – | inactive: 8.21% |
| CCOc1cc(N2CCOCC2)c(OCC)cc1NC(=O)CN1C(=O)NC(Cc2ccccc2)C1=O (stereo not given) | – | inactive: -11.1% |
